From PubChem BioAssay AID485344 (National Center for Advancing Translational Sciences (NCATS), 2010)
The campaign covered roughly 340,000 compounds. About 6,900 (2%) were called active. Rule as the data show it: active = inhibition above about 30%; inactive = below that, where a call was filed. This is a selection; strong and weak results do not stand in their true shares. Entries without a call were filed so in the source.

These compounds were tested against D(2) dopamine receptor (Homo sapiens) (UniProt P14416) (assay: HTS Assay for Allosteric Antagonists of the Human D2 Dopamine Receptor: Primary Screen for Antagonists). Conditions: HEK293 TREx D2 cells, calcium flux, dopamine EC80; at 10 µM; stronger effect = higher value.
Chain of UniProt P14416 (P14416 whole entry, looked up): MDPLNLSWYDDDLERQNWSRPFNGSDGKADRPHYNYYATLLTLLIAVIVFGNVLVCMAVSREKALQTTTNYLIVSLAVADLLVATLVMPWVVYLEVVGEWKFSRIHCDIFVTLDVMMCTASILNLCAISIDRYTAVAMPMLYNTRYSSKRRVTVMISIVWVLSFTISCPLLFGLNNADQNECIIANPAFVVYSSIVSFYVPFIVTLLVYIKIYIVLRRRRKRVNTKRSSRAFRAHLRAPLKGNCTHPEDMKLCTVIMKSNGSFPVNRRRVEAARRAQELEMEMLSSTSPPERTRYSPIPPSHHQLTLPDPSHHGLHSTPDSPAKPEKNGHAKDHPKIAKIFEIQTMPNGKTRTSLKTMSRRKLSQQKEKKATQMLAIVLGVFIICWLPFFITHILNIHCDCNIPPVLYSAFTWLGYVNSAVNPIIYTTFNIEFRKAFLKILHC
How it was run: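 Read-out: kinetic calcium fluorescence (1 cycle/s) in inducible HEK293 T-REx D2 cells after an EC80 dopamine addition that followed 180 s compound preincubation. Loss of the dopamine response indicates antagonism.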
Also: 0% is about no effect.

Cc1cc(C)nc(/N=C(\N)Nc2ccc(OCc3ccccc3)cc2)n1 was tested, and the inhibition was active: 69.8%.
In the case of CC(C)(CC(=O)O)Cc1nc(-c2ccc(Cl)cc2)no1, the inhibition is reported as active: 43.6%.
COc1cc(C(=O)NC(=S)Nc2ccccc2N2CCCC2)cc(OC)c1OC was tested, and the inhibition was active: 43.5%.
For C=CCNc1nc(SC)nc2ccsc12, the inhibition was active: 31.9%.
With Cc1ccc(CSCCNC(=O)CSCc2ccc([N+](=O)[O-])cc2)cc1 the inhibition was active: 31.7%.
With CCn1cc(C(=O)N2CCN(Cc3ccc4c(c3)OCO4)CC2)c2cc(OC)c(OC)cc2c1=O the inhibition was active: 32.8%.
In the case of Cc1cc(Br)ccc1OCCOCCN1CCCC1, the inhibition is reported as active: 43.1%.
With Cc1onc(-c2ccccc2)c1C(=O)NNC(=S)NC(=O)c1ccc(Br)cc1 the inhibition was active: 35.6%.
For O=C(COC(=O)C1CCN(c2ccc(C(F)(F)F)cn2)CC1)NCc1cccc(Cl)c1, the inhibition was active: 33.6%.
With COc1ccccc1C(=O)N1CCC(N2CCN(c3ccccc3)CC2)CC1 the inhibition was active: 68.8%.
In the case of O=C(Nc1ccc(S(=O)(=O)Nc2ncccn2)cc1)c1cccnc1, the inhibition is reported as active: 42.3%.
In the case of O=c1cc2oc3cc(O)c(O)cc3c(-c3ccccc3[N+](=O)[O-])c-2cc1O, the inhibition is reported as active: 31.4%.

Going from O=C(Cn1ncc2c3ccccc3n(Cc3ccc(F)cc3)c2c1=O)NC1CCCCCC1 to O=C1c2oc3ccccc3c(=O)c2C(c2cccc(O)c2)N1Cc1ccc(F)cc1 (configuration not stated), the inhibition falls from 6.9% to -3.38%.

Going from CCOC(=O)c1cc(-c2ccccc2)n(-c2cccc(C(=O)NC(C)CC)c2)c1C (configuration not stated) to CCOc1ccc(C(=O)Nc2cc(-c3ccccc3)no2)cc1, the inhibition rises from -27.5% to -2.33%.

Compared with Cc1ccc(N(C)S(=O)(=O)c2ccc(-c3cnc(C4CC4)o3)cc2)cc1, COc1ccc(N(C(=O)c2ccc(C)cc2)S(=O)(=O)c2ccc(Cl)cc2)cc1 is higher in inhibition: -4.76% for the first, 7.16% for the second.

First: COc1ccc(Nc2nc(-c3ccccc3)c3cc(Br)ccc3n2)cc1
Second: Clc1ccccc1CNc1nc2ccccc2c2nc(-c3ccccc3)nn12
The inhibition of the first is lower: -1.16% for the first, 5.91% for the second.

Going from CC(C)Oc1ccc(CNC(=O)c2ccc3c(c2)N(Cc2ccc(F)cc2)CCS3)cc1 to O=C(c1cc(-c2ccc(Cl)cc2)on1)N(Cc1ccc(F)cc1)Cc1ccco1, the inhibition falls from 17.8% to -9.03%.

Compared with O=C(C1CCCCC1)N(Cc1cccnc1)c1nc2c(F)cccc2s1, Cc1cccc(-c2nnc(SCC(=O)NC3CCCCC3)o2)c1 is higher in inhibition: 18% for the first, 21% for the second.

Going from CCN(CC)CCNC(=O)c1sc2nc(C)cc(C)c2c1-n1cccc1 to CCOc1ccc(CCNC(=O)c2ccc(C)c(-n3c(C)nc4cccnc43)c2)cc1OCC, the inhibition rises from -4.8% to -1.05%.

Going from Cc1ccc2onc(CNC(=O)N(C)Cc3ccccc3)c2c1 to CCN(Cc1ccccc1)C(=O)c1cc2ccc3cccnc3c2[nH]1, the inhibition falls from -7.06% to -15.5%.

Going from COc1ccc(NC(=O)Cn2ccn(Cc3ccccc3)c(=O)c2=O)cc1Cl to Cc1nc(SCC(=O)Nc2ccccc2Cl)cc(-c2ccccc2)n1, the inhibition rises from -11.1% to 18.6%.

First: CCOC(=O)c1ccc(NC(=O)c2cccc3c(=O)c4c([nH]c23)CCCC4)cc1
Second: CCc1ccc(NS(=O)(=O)c2ccc3[nH]cc(C(=O)N4CCCCCC4)c(=O)c3c2)cc1
The inhibition of the first is higher: 13.8% for the first, -3.9% for the second.

Compared with CCc1ccccc1NC(=O)Cn1c(C(=O)OC)cc2oc(C)cc21, CCC(=O)Nc1cc(-c2nc3cc(C)cc(C)c3o2)ccc1C is lower in inhibition: 10.9% for the first, 10.2% for the second.

Going from O=C1c2[nH]nc(-c3ccccc3O)c2C(c2cccc(Br)c2)N1Cc1ccncc1 (configuration not stated) to COc1cccc(-c2n[nH]c3c2C(c2cccc(O)c2)N(C)C3=O)c1 (configuration not stated), the inhibition falls from 14.4% to -9.56%.

Going from CN(C(=O)CSc1cn(CC(=O)N2CCCC2)c2ccccc12)c1ccccc1 to Cc1c(C(=O)N(C)c2ccccc2)sc2nc(-c3ccc(F)cc3)cn12, the inhibition rises from 1.37% to 6.32%.

Going from CCCCOc1ccc(S(=O)(=O)Nc2ccc(-c3ccc(N4CCCCC4)nn3)cc2)cc1 to CCOc1ccc(N(CC(=O)Nc2ccc3c(c2)OCO3)S(=O)(=O)c2ccccc2)cc1, the inhibition falls from 26% to -0.946%.

Going from Cc1ccccc1OCC(=O)NCC(c1ccc(Cl)cc1)N1CCOCC1 (configuration not stated) to Cc1oc2ncn(C)c(=O)c2c1C(=O)N1CCN(c2ccc(Cl)cc2)CC1, the inhibition falls from 11.3% to -11.8%.

First: Cc1cc(C)cc(NC(c2cccc(Cl)c2)c2nnc(-c3ccccc3)o2)c1 (configuration not stated)
Second: Cc1nn(C)c2c1c(-c1ccccc1)cc(=O)n2Cc1c(F)cccc1Cl
The inhibition of the first is higher: 19.7% for the first, -2.21% for the second.

Going from O=C(Nc1cccc2cccnc12)c1cccc2c(Br)cccc12 to Cc1cc(Br)ccc1NC(=O)CN1C(=O)c2cccnc2Sc2ccccc21, the inhibition falls from 13.2% to -3.27%.

Going from O=C1c2oc3ccccc3c(=O)c2C(c2ccccc2F)N1Cc1ccc2c(c1)OCO2 (configuration not stated) to Cc1ccc2oc3c(c(=O)c2c1)C(c1cccc(O)c1)N(CCCN1CCOCC1)C3=O (configuration not stated), the inhibition rises from -9.68% to 2.72%.

First: CCc1cc2c(cc3c(=O)n(CC(=O)NC4CCC(C)CC4)nc(CC)n32)s1 (configuration not stated)
Second: CCS(=O)(=O)N1CC(=O)N(c2cccc(C)c2C)C(C)(C(=O)NC2CCCCCC2)C1 (configuration not stated)
The inhibition of the first is higher: 3.15% for the first, -19.2% for the second.

Going from COc1ccc(CNC(=O)c2cnn(-c3ccc(OC)cc3)c2C2CCN(C(=O)OC(C)(C)C)CC2)cc1 to COc1ccc(Cn2c(C(=O)O)c(CNCCc3cccs3)c3ccc(OC)cc32)cc1, the inhibition falls from -1.05% to -14.4%.

Going from COc1cccc(NC(=O)CSc2cc(C)[nH]c(=O)n2)c1 to CCN(CC)c1nn2c(=O)c(C(=O)NCc3cccc(OC)c3OC)cnc2s1, the inhibition rises from -15.5% to -0.154%.

Going from COCCCNC(=O)c1sc2nc(C)c(C(=O)Nc3ccc(Cl)cc3)c(-c3ccc(Br)cc3)c2c1N to CC(C)Sc1ncc(Cl)c(C(=O)Nc2c(C(=O)Nc3ccccc3)oc3ccccc23)n1, the inhibition falls from 11.8% to -5.36%.

First: O=C1CN(C(=O)c2ccc(S(=O)(=O)N3CCCC3)cc2)C(c2ccc(F)cc2)c2cc(F)ccc2N1 (configuration not stated)
Second: CCOc1cccc(CC(=O)N2CCc3c([nH]c4ccccc34)C2c2ccc(OC)cc2)c1OCC (configuration not stated)
The inhibition of the first is lower: -21.7% for the first, -0.545% for the second.

Compared with CCN(c1ccccc1)S(=O)(=O)c1nnc(NC(=O)C(C)Oc2ccccc2)s1 (configuration not stated), Cc1ccccc1Nc1c(-c2ccccc2O)nc2sccn12 is lower in inhibition: 1.94% for the first, -11.7% for the second.

First: CCOC(=O)Cc1ccc(NC(=O)N2CCC(CN3CCC(C)CC3)CC2)cc1
Second: COc1cc(C2C(C(=O)Nc3ccc(C)cc3C)=C(C)Nc3nc(SCc4ccccc4)nn32)cc(OC)c1OC (configuration not stated)
The inhibition of the first is lower: 2.23% for the first, 6.57% for the second.
